“And” between values parts separate entries of the source, which are not always exact repeats. Equal values may be shown once. Hit rate of the full screen: of about 390,000 compounds, about 17,000 (4.4%) were called active. The shares of active, inactive and inconclusive entries below differ from those in the screen. The call rests on the fitted dose curve; in most records, active means well fitted inhibition curve with a large enough effect; inconclusive means small, poorly fitted or top-dose-only effect; inactive means no such curve, though single readings can be large or run the other way. A potency beside an inconclusive call is a rough fit, not a confirmed value.
These compounds were tested against Lysine-specific demethylase 4A (Homo sapiens) (UniProt O75164) (assay: qHTS Assay for Inhibitors of JMJD2A-Tudor Domain). Conditions: AlphaScreen JMJD2A-Tudor / H3K4me3 peptide binding; series mostly up to 114 µM.
Sequence of UniProt O75164 (O75164 whole entry, looked up, the tested form may be a part): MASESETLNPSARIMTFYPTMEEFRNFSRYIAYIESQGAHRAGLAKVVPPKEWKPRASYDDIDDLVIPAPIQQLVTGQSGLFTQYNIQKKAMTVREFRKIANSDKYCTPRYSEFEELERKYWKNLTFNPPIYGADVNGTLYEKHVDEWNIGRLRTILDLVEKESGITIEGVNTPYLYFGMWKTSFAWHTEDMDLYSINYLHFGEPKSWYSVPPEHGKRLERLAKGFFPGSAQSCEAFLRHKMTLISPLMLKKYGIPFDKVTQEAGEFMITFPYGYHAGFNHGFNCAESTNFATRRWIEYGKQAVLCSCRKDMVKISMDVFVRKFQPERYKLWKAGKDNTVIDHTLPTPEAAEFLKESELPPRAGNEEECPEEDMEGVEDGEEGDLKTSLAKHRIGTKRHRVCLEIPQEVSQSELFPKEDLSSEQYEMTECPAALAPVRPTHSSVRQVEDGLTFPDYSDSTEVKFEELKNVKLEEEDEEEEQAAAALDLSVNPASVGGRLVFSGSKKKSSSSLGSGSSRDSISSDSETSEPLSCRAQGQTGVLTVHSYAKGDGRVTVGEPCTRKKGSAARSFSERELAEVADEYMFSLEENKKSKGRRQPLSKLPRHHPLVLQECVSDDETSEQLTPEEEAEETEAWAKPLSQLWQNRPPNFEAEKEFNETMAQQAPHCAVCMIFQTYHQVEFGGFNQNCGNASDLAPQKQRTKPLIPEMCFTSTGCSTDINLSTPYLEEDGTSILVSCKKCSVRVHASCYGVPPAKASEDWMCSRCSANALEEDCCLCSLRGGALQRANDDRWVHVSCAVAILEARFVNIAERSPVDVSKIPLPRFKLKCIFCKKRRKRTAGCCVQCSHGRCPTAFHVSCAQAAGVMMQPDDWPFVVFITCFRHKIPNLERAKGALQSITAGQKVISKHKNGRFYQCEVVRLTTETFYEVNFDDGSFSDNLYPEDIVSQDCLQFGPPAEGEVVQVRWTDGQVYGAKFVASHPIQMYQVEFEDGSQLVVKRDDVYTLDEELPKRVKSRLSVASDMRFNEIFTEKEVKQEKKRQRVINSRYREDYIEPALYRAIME
For `CC(NNC(=S)N1CCN(c2ccccn2)CC1)c1nccc2ccccc12` (stereo not drawn), the Potency was active: 20 µM. For `O=C(COc1ccc2ccccc2c1)NNC(=O)c1ccccc1`, the Potency was “inactive”. For `O=C(CSc1nc2c([nH]c3ccccc32)c(=O)n1-c1ccc(Cl)cc1)N1CCCCCC1`, the Potency was “inactive”. In the case of `Cn1cc(S(=O)(=O)N2CCCCC2)cc1C(=O)N1CCN(c2ccccc2F)CC1`, the Potency is reported as “inactive”. For `Cc1ccc(Cl)cc1N1CCN(C(=O)CCS(=O)(=O)c2cccc3nonc23)CC1`, the Potency was inconclusive: 44.7 µM [inhibitor, partial curve]. In the case of `O=C(/C(=C/O)N=Nc1ccccc1)c1ccco1`, the Potency is reported as inconclusive: 56.2 µM [inhibitor, partial curve]. In the case of `Cc1cccc(OCCNC(=O)c2cccc(Oc3ccc(C(F)(F)F)cc3[N+](=O)[O-])c2)c1`, the Potency is reported as inconclusive: 56.2 µM [inhibitor, single point]. In the case of `O=C(O)C1CCN(C(=O)c2ccccc2C(=O)N2CCC(C(=O)O)CC2)CC1`, the Potency is reported as “inactive”. With `Cn1c(=O)c2c(ncn2CC(=O)OCC(=O)NNC(=O)c2ccc(Cl)cc2)n(C)c1=O` the Potency was “inactive”. In the case of `COc1ccc(-c2nn(-c3ccccc3)cc2/C=C2/SC(=S)N(Cc3ccco3)C2=O)c(C)c1`, the Potency is reported as inconclusive: 6.31 µM [inhibitor, full curve]. `COC(=O)C1=CN(c2cc(C)cc(C)c2)C=C(C(=O)OC)C1c1ccc(OC)c(O)c1` was tested, and the Potency was inconclusive: 22.4 µM [inhibitor, full curve, poor fit]. With `CN(C)c1ccc(-n2cccc2)cc1` the Potency was active: 20 µM. In the case of `Cc1ccc(C)c(-n2cc(-c3ccccc3)nc2SCC(=O)Nc2ccccc2)c1`, the Potency is reported as inconclusive: 31.6 µM [inhibitor, full curve, poor fit]. `Cc1nc(N2CCCC2)ncc1C(=O)N1CCN(c2ccc(Cl)cc2)CC1` was tested, and the Potency was “inactive”. For `COc1ccc(NC(=O)Cn2c(=O)n(Cc3ccccc3)c(=O)c3oc4ccccc4c32)cc1Cl`, the Potency was “inactive”. For `Cc1ccc(C(=O)n2c(-c3ccccc3)cnc2SCC(=O)Nc2ccc(C)cc2C)cc1`, the Potency was inconclusive: 28.2 µM [inhibitor, single point]. For `CCC(=O)Nc1nnc(/C=C/c2ccc(OC)cc2)s1`, the Potency was inconclusive: 3.55 µM [inhibitor, single point]. For `O=C(CNC(=O)c1ccccc1Br)NCC(c1ccco1)N1CCCCC1` (stereo not drawn), the Potency was “inactive”. With `CC1C/C(=N\Nc2ccc(S(N)(=O)=O)cc2[N+](=O)[O-])CC(C)(C)C1` (stereo not drawn) the Potency was inconclusive: 25.1 µM [inhibitor, full curve]. With `Cc1cc(=O)[nH]c(N/N=C/c2ccc(N(C)C)cc2)n1` the Potency was active: 25.1 µM. In the case of `CCN(CC)S(=O)(=O)c1ccc(C)c(NC(=S)Nc2cccc(S(=O)(=O)N3CCCCCC3)c2)c1`, the Potency is reported as inconclusive: 39.8 µM [inhibitor, full curve, poor fit]. `O=c1c(Oc2ccccc2Br)c(C(F)(F)F)oc2c(CN3CCCC3)c(O)ccc12` was tested, and the Potency was inconclusive: 100 µM [inhibitor, single point]. For `COCCn1c(C)cc(C2=NNC(=Nc3ccc(OC)cc3)SC2)c1C`, the Potency was inconclusive: 10 µM [inhibitor, full curve, poor fit]. For `CO[C@H]1C=CO[C@@]2(C)Oc3c(C)c(O)c4c(O)c(c(C=NN5CCN(C)CC5)c(O)c4c3C2=O)NC(=O)C(C)=CC=C[C@H](C)[C@H](O)[C@@H](C)[C@@H](O)[C@@H](C)[C@H](OC(C)=O)[C@@H]1C`, the Potency was inconclusive: 79.4 µM [inhibitor, partial curve]. With `O=C(Cc1c[nH]c2ccccc12)Nc1nc2ccccc2[nH]1` the Potency was inconclusive: 17.8 µM [inhibitor, partial curve]. `Cc1ccc(C(=O)Nc2nnc(S(=O)(=O)N3CCN(c4ccc(F)cc4)CC3)s2)cc1` was tested, and the Potency was “inactive and inconclusive: 25.1 µM [inhibitor, full curve, poor fit]”. `Cc1ccc(CN2CCCn3nc(C(=O)NCc4cc(C)ccc4C)cc3C2=O)cc1` was tested, and the Potency was “inactive”. In the case of `COc1ccc(C2Nc3ccccc3C(=O)N2c2ccc(Cl)cc2)cc1Cn1cc([N+](=O)[O-])cn1` (stereo not drawn), the Potency is reported as inconclusive: 35.5 µM [inhibitor, single point]. `CCc1nc(Nc2ccc3c(c2)OCCO3)c2oc3ccccc3c2n1` was tested, and the Potency was inconclusive: 56.2 µM [inhibitor, partial curve, poor fit]. For `C=CC(=O)Nc1ccc(Nc2ccnc(Nc3ccc(N4CCN(C)CC4)cc3)n2)cc1`, the Potency was active: 31.6 µM. `CCCCN(CC)Cc1ccc(CNC(=S)Nc2ccc(C)cc2Cl)o1` was tested, and the Potency was “inactive”. In the case of `CC1=NN(c2ccccc2)C(=O)/C1=C/C=C/c1ccccc1`, the Potency is reported as active: 8.91 µM. In the case of `C=CCn1c(=O)c2ccccc2n2c(Sc3nnnn3-c3ccccc3)nnc12`, the Potency is reported as inconclusive: 100 µM [inhibitor, partial curve, poor fit]. With `Nc1cc2c(cc1[N+](=O)[O-])-c1ccccc1C2=NO` the Potency was active: 28.2 µM. In the case of `COCCNCCCOc1ccc(Br)cc1Cl`, the Potency is reported as active: 3.16 µM. With `CN(Cc1ccccc1)C(=O)C1CCC(CNS(=O)(=O)c2ccc3c(c2)CCCC(=O)N3)CC1` (stereo not drawn) the Potency was “inactive”. With `Cc1nc(Sc2ccc(Br)cc2)c(C#N)c(C)c1[N+](=O)[O-]` the Potency was inconclusive: 56.2 µM [inhibitor, partial curve]. In the case of `COc1c(Cl)cc(Cl)cc1CNCCNCC(C)O` (stereo not drawn), the Potency is reported as inconclusive: 44.7 µM [inhibitor, partial curve, poor fit]. With `OC(CNCCc1ccc(Cl)cc1)COc1cc(Cl)ccc1Cl` (stereo not drawn) the Potency was “inactive”. `Cc1ccc2scc(N3CCCCC3)c(=O)c2c1` was tested, and the Potency was inconclusive: 56.2 µM [inhibitor, partial curve]. With `CC(C(=O)Nc1ccc([N+](=O)[O-])cc1)N1CCN(C/C=C/c2ccccc2)CC1` (stereo not drawn) the Potency was inconclusive: 56.2 µM [inhibitor, partial curve]. In the case of `CCOc1ccc(NC(=S)N(CCN2CCOCC2)Cc2cc3cc4c(cc3[nH]c2=O)OCCO4)cc1`, the Potency is reported as inconclusive: 56.2 µM [inhibitor, partial curve, poor fit]. For `N[C@@H](Cc1ccc(O)cc1)C(=O)Nc1ccc2ccccc2c1`, the Potency was “inactive”.
Further: nearly all actives have a fitted effect of over 50% in size.
Potency means the concentration at half of the fitted maximal effect; tags describe the fitted curve by direction and shape.
